Reference: article PMC4336329 (PLoS ONE, 2015)
About 2,200 (0.71%) of roughly 310,000 compounds showed an effect of 50% or more. Effects have a minus sign here. This is one part of the list.

These compounds were tested against human ether-à-go-go-related gene (hERG) potassium channel (human, UniProt Q12809) (assay: primary screen, population patch clamp on CHO cells stably expressing hERG).
Chain of human ether-à-go-go-related gene (hERG) potassium channel (Q12809 whole entry, looked up): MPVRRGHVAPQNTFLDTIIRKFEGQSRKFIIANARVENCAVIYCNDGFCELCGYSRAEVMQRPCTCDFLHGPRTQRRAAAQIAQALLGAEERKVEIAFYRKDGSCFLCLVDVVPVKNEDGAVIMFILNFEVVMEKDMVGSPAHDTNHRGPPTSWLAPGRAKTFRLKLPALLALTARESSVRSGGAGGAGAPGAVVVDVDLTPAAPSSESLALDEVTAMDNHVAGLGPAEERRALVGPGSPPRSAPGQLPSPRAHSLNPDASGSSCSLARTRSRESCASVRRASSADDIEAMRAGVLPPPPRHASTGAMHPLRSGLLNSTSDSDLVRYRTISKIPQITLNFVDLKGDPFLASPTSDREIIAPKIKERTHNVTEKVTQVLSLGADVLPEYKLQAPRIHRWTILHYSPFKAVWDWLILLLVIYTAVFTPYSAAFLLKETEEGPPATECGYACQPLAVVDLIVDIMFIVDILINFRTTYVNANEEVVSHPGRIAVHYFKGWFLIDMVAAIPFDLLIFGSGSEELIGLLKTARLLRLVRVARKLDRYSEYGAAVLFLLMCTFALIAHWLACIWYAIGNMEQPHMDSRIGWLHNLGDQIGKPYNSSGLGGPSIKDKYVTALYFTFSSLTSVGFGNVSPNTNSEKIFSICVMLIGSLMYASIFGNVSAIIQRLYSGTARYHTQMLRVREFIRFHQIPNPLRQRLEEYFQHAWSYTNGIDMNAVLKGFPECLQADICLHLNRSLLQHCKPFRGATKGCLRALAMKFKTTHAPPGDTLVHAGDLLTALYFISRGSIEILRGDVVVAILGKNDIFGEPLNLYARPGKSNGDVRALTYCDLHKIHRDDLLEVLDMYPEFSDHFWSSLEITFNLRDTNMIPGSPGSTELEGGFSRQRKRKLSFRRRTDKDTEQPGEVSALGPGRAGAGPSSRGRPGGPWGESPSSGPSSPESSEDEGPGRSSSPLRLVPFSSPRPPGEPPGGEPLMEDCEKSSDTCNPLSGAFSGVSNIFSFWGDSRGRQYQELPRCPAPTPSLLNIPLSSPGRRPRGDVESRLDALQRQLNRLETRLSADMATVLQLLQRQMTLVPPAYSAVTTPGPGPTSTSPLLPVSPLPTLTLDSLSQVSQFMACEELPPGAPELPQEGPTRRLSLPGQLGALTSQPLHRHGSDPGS
For `CCOC(=O)c1c(NC(=O)Cc2cccs2)sc(C(=O)NC2CCCC2)c1C`, the “hERG current change (%, negative = inhibition) at 1uM” value was 0.408%. `COC(=O)Nc1ccc(S(=O)(=O)N(CCO)CCO)cc1` was tested, and the “hERG current change (%, negative = inhibition) at 1uM” value was -4.28%. With `CCOc1nc(-c2ccccc2)c2cc(Br)ccc2n1` the “hERG current change (%, negative = inhibition) at 1uM” value was 16.7%. In the case of `COc1ccc(/C=N\NC(=O)c2cc(OCC(F)(F)F)ccc2OCC(F)(F)F)cc1`, the “hERG current change (%, negative = inhibition) at 1uM” value is reported as 8.56%. In the case of `CC(Sc1nnc(Cc2ccc3c(c2)OCO3)o1)C(N)=O` (centres unmarked), the “hERG current change (%, negative = inhibition) at 1uM” value is reported as -5.91%. For `Cc1ccc(C(=O)CSc2nc3cccnc3n2C)cc1`, the “hERG current change (%, negative = inhibition) at 1uM” value was 10.9%. For `C/C(=N\NC(N)=S)c1ccc(Cl)s1`, the “hERG current change (%, negative = inhibition) at 1uM” value was 13.5%. With `C[C@@H]1CCC[C@@]2(O[C@H](CCO)C[C@H](O)[C@H]2O)O1` the “hERG current change (%, negative = inhibition) at 1uM” value was 2.55%. In the case of `C/C(N)=C(/C#N)C(=O)CN1CCCCC1`, the “hERG current change (%, negative = inhibition) at 1uM” value is reported as 5.74%. With `COc1cccc(/C=C/C(=O)NCc2ccc3c(c2)OCO3)c1` the “hERG current change (%, negative = inhibition) at 1uM” value was 6.97%. For `NC(=O)CN1C(=O)NC2(CCOc3ccccc32)C1=O` (centres unmarked), the “hERG current change (%, negative = inhibition) at 1uM” value was 14.3%. `COc1cccc(-c2nc(CS(=O)(=O)CC(=O)Nc3ccc(C(C)=O)cc3)c(C)o2)c1` was tested, and the “hERG current change (%, negative = inhibition) at 1uM” value was 17.3%. `CC(NC(=O)c1sc2cc([N+](=O)[O-])ccc2c1Cl)C(C)(C)C` (centres unmarked) was tested, and the “hERG current change (%, negative = inhibition) at 1uM” value was 2.53%. In the case of `Cc1ccc2oc(=O)n(CC(=O)OC(C)C)c2c1`, the “hERG current change (%, negative = inhibition) at 1uM” value is reported as 3.72%. In the case of `CC(C)(C)N=C1NN=C(c2ccc(Cl)cc2)CS1`, the “hERG current change (%, negative = inhibition) at 1uM” value is reported as 10.4%. With `CCOC(=O)N/N=C\C=C\c1ccc2c(c1)OCO2` the “hERG current change (%, negative = inhibition) at 1uM” value was 5.37%. `CC1CN(CCc2ccccc2)c2nc3c(c(=O)n(CC(N)=O)c(=O)n3C)n2C1` (centres unmarked) was tested, and the “hERG current change (%, negative = inhibition) at 1uM” value was 9.4%. With `OC(COCc1ccc(Cl)cc1)CN1CCN(CC(O)COCc2ccc(Cl)cc2)CC1` (centres unmarked) the “hERG current change (%, negative = inhibition) at 1uM” value was -67.5%. `CC(=O)N1c2ccc(S(=O)(=O)N3CCC(C(=O)NC4CCCCC4)CC3)cc2CC1C` (centres unmarked) was tested, and the “hERG current change (%, negative = inhibition) at 1uM” value was 14.1%. In the case of `Cc1[nH]c(C)c(S(=O)(=O)NCCc2ccc(S(N)(=O)=O)cc2)c1C(=O)N1CCCC1`, the “hERG current change (%, negative = inhibition) at 1uM” value is reported as 12.3%. In the case of `CC(=O)c1ccc(NC(=S)Nc2cccc3cnccc23)cc1`, the “hERG current change (%, negative = inhibition) at 1uM” value is reported as 11.8%. `COCCN(C(=O)COC(=O)C(c1ccccc1)c1ccccc1)c1c(N)n(Cc2ccccc2)c(=O)[nH]c1=O` was tested, and the “hERG current change (%, negative = inhibition) at 1uM” value was 10.9%. For `CCOCCn1c(=O)c2c(nc3n2CC(C)CN3Cc2ccccc2)n(C)c1=O` (centres unmarked), the “hERG current change (%, negative = inhibition) at 1uM” value was -14.4%. In the case of `O=C(Nc1ccccn1)c1ccc(Br)s1`, the “hERG current change (%, negative = inhibition) at 1uM” value is reported as 13.3%. For `Nc1nc(CSc2nc3ccccc3s2)nc(N2CCCCC2)n1`, the “hERG current change (%, negative = inhibition) at 1uM” value was 13.4%. In the case of `COc1cccc(NP(=O)(Oc2ccccc2)Oc2ccccc2)c1`, the “hERG current change (%, negative = inhibition) at 1uM” value is reported as -0.972%. For `O=C(CC(=O)Nc1ccccc1C(F)(F)F)Nc1ccccc1C(F)(F)F`, the “hERG current change (%, negative = inhibition) at 1uM” value was 13.7%. For `CC(=O)NCc1ccc(S(=O)(=O)N/N=C/c2ccc(Br)cc2)cc1`, the “hERG current change (%, negative = inhibition) at 1uM” value was 12.2%. In the case of `CCN(CC(=O)Nc1c(F)cccc1F)C(=O)CSCc1c(C)noc1C`, the “hERG current change (%, negative = inhibition) at 1uM” value is reported as 11.5%. For `CC(C)(C)C(=O)/C(C#N)=C/c1cccs1`, the “hERG current change (%, negative = inhibition) at 1uM” value was 10.2%. With `Cc1ccccc1-c1nc(CS(=O)(=O)CC(=O)N2CCc3ccccc3C2)c(C)o1` the “hERG current change (%, negative = inhibition) at 1uM” value was -3.9%. With `CC(/C=C/c1ccc(N(C)C)cc1)=N\N=C(/N)SC1CC(=O)N(c2ccc(C(=O)O)cc2)C1=O` (centres unmarked) the “hERG current change (%, negative = inhibition) at 1uM” value was 3.7%. `NC(=O)c1cc(N)ccc1N1CCCC1` was tested, and the “hERG current change (%, negative = inhibition) at 1uM” value was 6.77%. For `Cc1csc(NC(=O)CSc2nc3[nH]ncc3c(=O)[nH]2)n1`, the “hERG current change (%, negative = inhibition) at 1uM” value was 19.9%. `CS(=O)(=O)N(CC(=O)N1CCCC1)c1cccc(Cl)c1` was tested, and the “hERG current change (%, negative = inhibition) at 1uM” value was 8.28%. `CC(C)CC[n+]1ccccc1/C=C/c1ccc(N(C)C)cc1.[I-]` was tested, and the “hERG current change (%, negative = inhibition) at 1uM” value was -26.2%. In the case of `C#CCOCCOCCOCCNc1nc(N2CCN(C(=O)[C@H](CCCC[NH3+])n3cc(CCCC)nn3)CC2)nc(N2CCN(C(=O)[C@H](CCCC[NH3+])n3cc(CCC(=O)O)nn3)CC2)n1.[Cl-]`, the “hERG current change (%, negative = inhibition) at 1uM” value is reported as 10.5%. For `Cc1ccc(S(=O)(=O)N2CCCCC2)cc1C(=O)NC1CC(C)(C)NC(C)(C)C1`, the “hERG current change (%, negative = inhibition) at 1uM” value was 12.6%. For `CC(=O)O.Cc1ccc2nc(N3C(=O)C(O)=C(C(=O)c4cc5ccccc5o4)C3c3cccs3)sc2c1` (centres unmarked), the “hERG current change (%, negative = inhibition) at 1uM” value was 11.2%. For `Cc1ccc(NS(=O)(=O)c2ccc3[nH]c(=O)c(=O)[nH]c3c2)cc1Cl`, the “hERG current change (%, negative = inhibition) at 1uM” value was 9.72%. With `CNCc1c(C)nn(-c2ccccc2)c1C` the “hERG current change (%, negative = inhibition) at 1uM” value was 13.3%. For `CC(=O)N1C(=O)CC(C)N(C(C)=O)c2ccc([N+](=O)[O-])cc21` (centres unmarked), the “hERG current change (%, negative = inhibition) at 1uM” value was 4.26%. For `CN(C(=O)CN1C(=O)c2ccccc2S1(=O)=O)c1ccccc1C(=O)O`, the “hERG current change (%, negative = inhibition) at 1uM” value was 14.4%. In the case of `COc1cccc(NC(=O)Nc2cccnc2)c1`, the “hERG current change (%, negative = inhibition) at 1uM” value is reported as 4.8%.
